Data from PMC4336329 (PLoS ONE, 2015).
Out of some 310,000 compounds screened, about 14,000 (4.5%) showed an effect of 50% or more. The effect is printed as a negative number. This is one part of the list. Where a SMILES comes first, the peptide text is derived from it. The star is where a group is joined. Cbz = O=C(OCc1ccccc1)*

Target: human ether-à-go-go-related gene (hERG) potassium channel (human, UniProt Q12809)
Assay: primary screen, population patch clamp on CHO cells stably expressing hERG
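Note: peak tail current of the secondary pulse compared with the same well before compound.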

Sequence of human ether-à-go-go-related gene (hERG) potassium channel (Q12809 whole entry, looked up): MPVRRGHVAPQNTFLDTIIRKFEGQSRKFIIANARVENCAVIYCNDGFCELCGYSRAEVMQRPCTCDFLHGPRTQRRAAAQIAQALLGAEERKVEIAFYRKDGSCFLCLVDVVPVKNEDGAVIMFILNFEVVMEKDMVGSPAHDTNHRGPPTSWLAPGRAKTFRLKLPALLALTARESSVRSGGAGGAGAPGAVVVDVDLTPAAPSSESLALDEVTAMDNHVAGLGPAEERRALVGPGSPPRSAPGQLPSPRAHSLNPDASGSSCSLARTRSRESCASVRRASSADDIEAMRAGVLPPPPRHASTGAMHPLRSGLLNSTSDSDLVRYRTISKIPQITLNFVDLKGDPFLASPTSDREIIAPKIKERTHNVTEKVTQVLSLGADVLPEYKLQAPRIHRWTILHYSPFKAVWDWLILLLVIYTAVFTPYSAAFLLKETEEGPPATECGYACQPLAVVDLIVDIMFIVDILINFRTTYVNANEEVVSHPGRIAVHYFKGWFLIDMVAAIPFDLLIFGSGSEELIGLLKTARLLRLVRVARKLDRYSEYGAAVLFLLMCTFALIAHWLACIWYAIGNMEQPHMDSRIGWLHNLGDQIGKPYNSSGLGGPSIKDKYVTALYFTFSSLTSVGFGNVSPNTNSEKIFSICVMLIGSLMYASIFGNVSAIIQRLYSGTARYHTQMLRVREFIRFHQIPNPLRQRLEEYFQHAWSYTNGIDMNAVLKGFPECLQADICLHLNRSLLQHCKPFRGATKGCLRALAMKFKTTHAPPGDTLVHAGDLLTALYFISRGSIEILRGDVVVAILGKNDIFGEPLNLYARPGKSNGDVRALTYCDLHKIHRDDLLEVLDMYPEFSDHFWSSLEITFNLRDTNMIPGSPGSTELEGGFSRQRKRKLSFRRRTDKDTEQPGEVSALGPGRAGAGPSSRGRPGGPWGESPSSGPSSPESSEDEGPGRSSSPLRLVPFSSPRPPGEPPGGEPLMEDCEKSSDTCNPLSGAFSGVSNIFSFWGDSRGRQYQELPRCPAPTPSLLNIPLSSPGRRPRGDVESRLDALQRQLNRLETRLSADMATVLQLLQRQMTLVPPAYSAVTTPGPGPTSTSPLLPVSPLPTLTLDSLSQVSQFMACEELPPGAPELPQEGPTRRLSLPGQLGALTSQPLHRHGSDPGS

SMILES	hERG current change (%, negative = inhibition) at 10uM [%]
Cc1ccc(C2(CCNS(=O)(=O)c3ccc(C)cc3)CCOC(C(C)C)C2)cc1 (stereo not drawn)	-53.5
Cc1ccccc1NC(=O)C1(NC(=O)c2cccc(N3C(=O)CSC3c3ccccc3)c2)CCCCC1 (stereo not drawn)	5.33
CC(C)c1cc(-c2cc(C(=O)Nc3ccccc3)on2)nc(NC2CCCC2)n1	-5.33
CCCc1oc(C(=O)O)cc1CN.Cl	5.96
COc1cccc(NC(=O)C2CCCN2C(=O)NC2CCCCC2)c1 (stereo not drawn)	6.54
CC(NC(=O)CNC(=O)C(Cc1ccccc1)NC(=O)OCc1ccccc1)C(N)=O (stereo not drawn) (Cbz-Phe-Gly-Ala-NH2; configuration not given here)	42.4
COc1ccccc1CCNC(=O)c1ccc(C)o1	-10.2
COc1ccc(O)c(C=NCC(C)N=Cc2cc(OC)ccc2O)c1 (stereo not drawn)	8.91
Cc1ccc(-n2nc3c(c2NC(=O)CC(C)C)CS(=O)(=O)C3)c(C)c1	25
CC(=O)Oc1ccc(/C=C(\NC(=O)c2ccco2)C(=O)Nc2ccc(C(C)=O)cc2)cc1	-26.2
CC(C)Oc1ccc(OCCn2c(=S)[nH]c3c(N)ncnc32)cc1	-2.49
O=C1NC(=O)N(Cc2ccccc2)C(=O)/C1=C/N1CCCc2ccccc21	12.1
CC(=O)Nc1ccc(OC(=O)c2ccco2)cc1	9.07
Cn1c(=O)c2c(nc(Br)n2CC(=O)C23CC4CC(CC(C4)C2)C3)n(C)c1=O	-24.6
Cc1nc(C(=O)O)nn1-c1ccc([N+](=O)[O-])cc1	2.84
CC(C)[C@H](NC(=O)c1c(F)cccc1F)C(=O)OCC(=O)NC(=O)NC1CCCC1	3.2
CCN1CCc2c(sc(NC(=O)Cc3ccccc3)c2C(=O)OC)C1.Cl	-51.5
CC1(C)CC2(C)Nc3ccccc3N2C(=S)N1 (stereo not drawn)	3.92
Cc1cccc(C2NC(c3cccc(C)c3)C(C)C(=O)C2C)c1 (stereo not drawn)	8.92
Cc1cccc(Cc2c(C)[nH]c(=O)c(C#N)c2C)c1	-3.26
Cc1cccc(NC(=S)N2CCN(S(=O)(=O)c3cccc(F)c3)CC2)c1	-16
COc1ccc(Cc2nc3ccc(S(=O)(=O)N4CCOCC4)cc3[nH]2)cc1OC	19.7
CCOC(=O)C1=C(C)NC(=O)C(C(N)=O)C12CCCCC2 (stereo not drawn)	12.4

SMILES	hERG current change (%, negative = inhibition) at 10uM [%]
COc1ccc(C2NCCc3cc(OC)c(OC)cc32)cc1OC (stereo not drawn)	9.57
Cc1cc2c(NCc3ccccc3)ncnc2s1.Cl	0.0717
Cc1cc(C)cc(NC(=O)CSc2nc(=O)n3cc(C)ccc3n2)c1	-1.17
CCCNC(=O)c1ccccc1C(=O)NCCC	-0.752
O=C1c2ccccc2S(=O)(=O)N1CC1CC(c2ccccc2)=NO1 (stereo not drawn)	-21.8
COc1cc2c(cc1OC)C(C)N(C(=O)/C=C/c1cc(OC)c(OC)c(OC)c1)CC2 (stereo not drawn)	7.57
CCn1c(=O)c2cc(C(=O)N3CCOCC3)sc2c2ccccc21	-23.5
CCSc1nc2sc3c(c2c(=O)n1-c1ccccc1C)CCN(C)C3	11.5
CCOc1[nH]n(-c2ccccc2)c(=O)c1C=NCc1cccnc1	-48.8
FC(F)(F)c1nnc2ccc(NCc3ccccc3)nn12	8.9
CCOC(=O)N1CCN(C(=O)c2cc3c(=O)n(C)c4ccccc4c3n2C)CC1	-8.71
Nc1nc2ccccc2n1Cc1ccc(Cl)c(Cl)c1	-10.2
COc1ccc(/C=c2\sc3nc(-c4ccccc4)c(-c4ccccc4)n3c2=O)cc1OC	11.4
COc1cccc(NC(=O)NCc2ccc(F)cc2)c1	-5.73
O=C(c1ccccc1)N1CCCCCC1	29.1
CCN(CCO)c1ccc(N=Cc2c(O)n(C)c(=S)[nH]c2=O)cc1	-1.04
Cc1ccc(S(=O)(=O)Nc2cc(C(=O)NCCN3CCCC3)ccc2N2CCCCC2)cc1	-40.3
CCCc1ccc(S(=O)(=O)NCCc2ccncc2)cc1	-25.5
O=C(NC1CCCCCC1)c1nc2ncccn2n1	16.7
COc1cc(C)nc(NS(=O)(=O)c2ccccc2Cl)n1	12.7
Cc1cc(C=C2C(=O)CCCC2=O)c(C)n1-c1ccccc1	-12.5
CCOC(=O)Cc1csc(NC(=O)COc2ccccc2OCC)n1	-24.2
